Source: PMC9879999, “A phosphoinositide hub connects CLE peptide signaling and polar auxin efflux regulation” (Nature Communications, 2023)
No constants are given. Whether binding was seen depends on the method and setting. For some of these results: Binding seen in cells or lysates may run through a third protein. Some results given as binding are weak or reduced against the parent protein; the word gives no strength. For some of these results: Where a sequence is shown, tags or fusion partners need not be part of it.

T1: BRX-LIKE 2 (BRXL2) (Arabidopsis thaliana) (UniProt Q8GYL9)
T1 sequence: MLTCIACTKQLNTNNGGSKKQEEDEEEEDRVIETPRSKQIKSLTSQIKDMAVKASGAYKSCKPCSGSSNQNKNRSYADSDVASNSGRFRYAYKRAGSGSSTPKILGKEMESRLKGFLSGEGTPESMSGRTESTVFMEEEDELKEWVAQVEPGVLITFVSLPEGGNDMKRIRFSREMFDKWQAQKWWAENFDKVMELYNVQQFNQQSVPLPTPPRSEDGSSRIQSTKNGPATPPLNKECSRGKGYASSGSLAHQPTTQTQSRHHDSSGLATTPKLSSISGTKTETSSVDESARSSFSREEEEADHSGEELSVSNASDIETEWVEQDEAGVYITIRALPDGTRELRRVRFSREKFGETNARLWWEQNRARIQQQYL

T2: 3-phosphoinositide-dependent protein kinase 1 (PDK1) (Arabidopsis thaliana) (UniProt Q9XF67)
T2 sequence: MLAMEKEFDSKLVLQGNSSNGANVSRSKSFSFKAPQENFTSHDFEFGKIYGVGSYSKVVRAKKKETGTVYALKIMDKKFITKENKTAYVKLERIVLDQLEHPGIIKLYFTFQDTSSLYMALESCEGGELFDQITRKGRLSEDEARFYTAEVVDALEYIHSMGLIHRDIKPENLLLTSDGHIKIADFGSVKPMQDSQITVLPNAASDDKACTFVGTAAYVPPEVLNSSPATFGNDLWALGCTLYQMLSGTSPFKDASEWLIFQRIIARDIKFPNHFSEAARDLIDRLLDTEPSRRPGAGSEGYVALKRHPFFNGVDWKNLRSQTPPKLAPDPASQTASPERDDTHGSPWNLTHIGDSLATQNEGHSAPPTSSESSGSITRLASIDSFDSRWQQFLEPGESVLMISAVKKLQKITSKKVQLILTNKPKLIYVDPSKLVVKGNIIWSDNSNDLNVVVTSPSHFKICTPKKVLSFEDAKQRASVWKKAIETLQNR

T3: BREVIS RADIX (BRX) (Arabidopsis thaliana) (UniProt Q17TI5)
T3 sequence: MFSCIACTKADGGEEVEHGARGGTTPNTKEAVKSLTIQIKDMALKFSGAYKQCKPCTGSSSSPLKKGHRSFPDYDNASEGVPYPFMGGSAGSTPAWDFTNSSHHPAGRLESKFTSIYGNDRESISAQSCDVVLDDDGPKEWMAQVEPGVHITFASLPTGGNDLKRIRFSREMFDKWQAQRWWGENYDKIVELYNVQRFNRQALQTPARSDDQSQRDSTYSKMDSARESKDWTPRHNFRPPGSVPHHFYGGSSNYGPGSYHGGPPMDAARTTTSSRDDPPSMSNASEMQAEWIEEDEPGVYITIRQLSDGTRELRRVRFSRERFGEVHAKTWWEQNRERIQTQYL

T4: nYFP-BRX (Arabidopsis thaliana) (UniProt Q17TI5)
T4 sequence: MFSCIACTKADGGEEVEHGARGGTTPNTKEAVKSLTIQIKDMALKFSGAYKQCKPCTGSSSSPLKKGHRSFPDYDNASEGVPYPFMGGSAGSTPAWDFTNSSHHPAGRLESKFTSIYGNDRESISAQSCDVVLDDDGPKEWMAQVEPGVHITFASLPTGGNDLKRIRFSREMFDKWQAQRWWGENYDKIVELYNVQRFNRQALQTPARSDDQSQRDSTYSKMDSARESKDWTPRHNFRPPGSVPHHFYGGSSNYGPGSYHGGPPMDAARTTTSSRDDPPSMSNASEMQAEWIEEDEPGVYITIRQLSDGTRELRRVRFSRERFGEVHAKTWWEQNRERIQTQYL


How the values were obtained:
[1] = biological target: T1, BRX-LIKE 2 (BRXL2) (Arabidopsis thaliana); test: two-hybrid; Golden Yeast strain; pGBKT7 or pGADT7 vectors as baits or preys; tested on -Trp-Leu and -Trp-Leu-Ade-His medium; 3-AT added for BRX-related bait proteins
[2] = biological target: T2, 3-phosphoinositide-dependent protein kinase 1 (PDK1) (Arabidopsis thaliana); test: as above
[3] = biological target: T3, BREVIS RADIX (BRX) (Arabidopsis thaliana); test: as above
[4] = biological target: T4, nYFP-BRX (Arabidopsis thaliana); test: split reporter; BiFC: 35S::PBL34-cYFP and 35S::nYFP-BRX transiently co-expressed in Nicotiana benthamiana leaves; eYFP signal by confocal microscopy

| Binder | binding [1] | binding [2] | binding [3] | binding [4] |
| --- | --- | --- | --- | --- |
| PBS1-LIKE 35 (PBL35) (enzyme, UniProt Q9SRH7 1-490) MGFDSVKVMENWQSKTSNENEKKKKKRRRKKNNNVRNSEHYEEEANGCWVKFRYIVCCASSTSDVETSLTLSTSTVGSQSAIVQSNDQPVGPVSSTTTTSNAESSLSTPIISEELNIYSHLKKFSFIDLKLATRNFRPESLLGEGGFGCVFKGWVEENGTAPVKPGTGLTVAVKTLNPDGLQGHKEWLAEINYLGNLLHPNLVKLVGYCIEDDQRLLVYEFMPRGSLENHLFRRSLPLPWSIRMKIALGAAKGLSFLHEEALKPVIYRDFKTSNILLDGEYNAKLSDFGLAKDAPDEGKTHVSTRVMGTYGYAAPEYVMTGHLTSKSDVYSFGVVLLEMLTGRRSMDKNRPNGEHNLVEWARPHLLDKRRFYRLLDPRLEGHFSVKGAQKVTQLAAQCLSRDSKIRPKMSEVVEVLKPLPHLKDMASASYYFQTMQAERLKAGSGSGSGRGFGSRNGQPVFRTLSSPHGQAGSSPYRHQIPSPKPKGATT | no binding | no binding | binds | – |
| PBL34-cYFP (enzyme, UniProt Q9LFP7 1-493) MGLDAVKAKGNWKSEKPKETENKNHKKKNGDDNKSRNEEEEEGEASGCWVKFRFMIGCIPSKSDLDASSSSIYGSNCTVTTMESKSANEKSNDQPVGQVSSTTTTSNAESSSSTPVISEELNISSHLRKFTFNDLKLSTRNFRPESLLGEGGFGCVFKGWIEENGTAPVKPGTGLTVAVKTLNPDGLQGHKEWLAEINFLGNLLHPNLVKLVGYCIEDDQRLLVYEFMPRGSLENHLFRRSLPLPWSIRMKIALGAAKGLSFLHEEALKPVIYRDFKTSNILLDADYNAKLSDFGLAKDAPDEGKTHVSTRVMGTYGYAAPEYVMTGHLTSKSDVYSFGVVLLEMLTGRRSMDKNRPNGEHNLVEWARPHLLDKRRFYRLLDPRLEGHFSIKGAQKVTQLAAQCLSRDPKIRPKMSDVVEALKPLPHLKDMASSSYYFQTMQAERLKNGSGRSQGFGSRNGQHQPVFRTLSSPHGSSPYRHQIPSPKPKGATT | – | – | – | binds |
| kinase-dead PIP5K1 variant (K536A; 'iPIP5K1') (enzyme, UniProt Q56YP2 1-752) MSDSEEDEEEEEASEVILSSVVQKKKKKNLRFGEEVERRDGLVLLAQSTPMVRSRSQGTTRRVTPTPLVDVEKPLPNGDLYIGSFSGGFPHGSGKYLWKDGCMYEGDWKRGKASGKGKFSWPSGATYEGEFKSGRMEGFGTFTGADGDTYRGTWVADRKHGHGQKRYANGDFYEGTWRRNLQDGRGRYVWRNGNQYTGEWRSGVISGKGLLVWPNGNRYEGLWENGIPKGNGVFTWSDGSSCVGAWNESNIMRSFFNGVEKNDLIVGNRKRSSVDSGAGSLGGEKVFPRICIWESDGEAGDITCDIIDNVEASMIYRDRISVDRDGFRQFKKNPCWFNGEAKKPGQTISKGHKKYDLMLNLQLGIRYSVGKHASIVRDLKQTDFDPKEKFWTRFPPEGTKTTPPHQSVDFRWKDYCPLVFRRLRELFQVDPAKYMLAICGNDALRELSSPGKSGSFFYLTQDDRFMIKTVKKSEVKVLLRMLPSYYKHVCQYENSLVTRFYGVHCVKPVGGQKTRFIVMGNLFCSEYRIQRRFDLAGSSHGRSTAKPEGEIDETTTLKDLDLNFSFRLQRNWYQELMKQIKRDCEFLEAERIMDYSLLVGVHFRDDNTGEKMGLSPFVLRSGRIDSYQNEKFMRGCRFLEAELQDMDRILAGRKPSIRLGANMPAKAERMARRSDFDQYSSGGASYPSHGEMYEVVLYFGVIDILQDYDITKKIEHAYKSLQADPASISAVDPKLYSKRFRDFISRIFIEEG | – | – | binds | – |
| kinase domain of CORYNE (CRN) (domain or fragment, UniProt Q9LYU7 118-401) SNGIQLLGSDLNGKYYKMVLDNGLVVAVKRLGSLEGVGSPESSSSKSVKRRLQKELELLAGLRHRNLMSLRAYVRESDEFSLVYDYMPNGSLEDVMNKVRTKEVELGWEIRLRVAVGIVKGLQYLHFSCETQILHYNLKPTNVMLDSEFEPRLADCGLAKIMPSSHTAVSCYSAPESSQSNRYTDKSDIFSFGMILGVLLTGRDPTHPFCEESASGGSLGQWLKHLQQSGEAREALDKTILGEEVEEDEMLMALRITIICLSDFPADRPSSDELVHMLTQLHSF | – | no binding | – | – |

Other lines, results leading:

| binding [1] | binding [2] | binding [3] | binding [4] | Binder |
| --- | --- | --- | --- | --- |
| no binding | no binding | binds | – | PBS1-LIKE 34 (PBL34) (enzyme, UniProt Q9LFP7 1-493) MGLDAVKAKGNWKSEKPKETENKNHKKKNGDDNKSRNEEEEEGEASGCWVKFRFMIGCIPSKSDLDASSSSIYGSNCTVTTMESKSANEKSNDQPVGQVSSTTTTSNAESSSSTPVISEELNISSHLRKFTFNDLKLSTRNFRPESLLGEGGFGCVFKGWIEENGTAPVKPGTGLTVAVKTLNPDGLQGHKEWLAEINFLGNLLHPNLVKLVGYCIEDDQRLLVYEFMPRGSLENHLFRRSLPLPWSIRMKIALGAAKGLSFLHEEALKPVIYRDFKTSNILLDADYNAKLSDFGLAKDAPDEGKTHVSTRVMGTYGYAAPEYVMTGHLTSKSDVYSFGVVLLEMLTGRRSMDKNRPNGEHNLVEWARPHLLDKRRFYRLLDPRLEGHFSIKGAQKVTQLAAQCLSRDPKIRPKMSDVVEALKPLPHLKDMASSSYYFQTMQAERLKNGSGRSQGFGSRNGQHQPVFRTLSSPHGSSPYRHQIPSPKPKGATT |
| no binding | no binding | binds | – | PBS1-LIKE 36 (PBL36) (enzyme, UniProt F4J0D2 1-476) MATKLESFKVVEKLGVEKGEKGKMMSKKKNVKKDGDESESGFWFRFKFIFSCISSRSKVDSSMNATAVIAEPKKVIEKLEGHPAPTKDTGCAESGSSTPLMSGELKYSSKLRIFMFNDLKLATRNFRPESLLGEGGFGCVFKGWIEENGTAPVKPGTGLTVAVKTLNPDGLQGHKEWLAEINFLGNLVHPSLVKLVGYCMEEDQRLLVYEFMPRGSLENHLFRRTLPLPWSVRMKIALGAAKGLAFLHEEAEKPVIYRDFKTSNILLDGEYNAKLSDFGLAKDAPDEKKSHVSTRVMGTYGYAAPEYVMTGHLTTKSDVYSFGVVLLEILTGRRSVDKSRPNGEQNLVEWVRPHLLDKKRFYRLLDPRLEGHYSIKGAQKATQVAAQCLNRDSKARPKMSEVVEALKPLPNLKDFASSSSSFQTMQPVAKNGVRTQGGGFVSRNGPPMRSLSSLNLPQASPYRYARQSPKPKGKEP |
| – | no binding | – | – | BARELY ANY MERISTEM 3 (BAM3) kinase domain (domain or fragment, UniProt O65440 710-992) VKENHVIGKGGRGIVYKGVMPNGEEVAVKKLLTITKGSSHDNGLAAEIQTLGRIRHRNIVRLLAFCSNKDVNLLVYEYMPNGSLGEVLHGKAGVFLKWETRLQIALEAAKGLCYLHHDCSPLIIHRDVKSNNILLGPEFEAHVADFGLAKFMMQDNGASECMSSIAGSYGYIAPEYAYTLRIDEKSDVYSFGVVLLELITGRKPVDNFGEEGIDIVQWSKIQTNCNRQGVVKIIDQRLSNIPLAEAMELFFVAMLCVQEHSVERPTMREVVQMISQAKQPNTF |
